# Assay results taken from PMC13423814.
# The source holds more than one record for some entries. This list holds those alone. An entry can have further records. Some protein pairs were linked at several places, one record each.
# Legend:
# Details in all cases: DSSO, in cells
# NDUFA5 = NDUFA5 (UniProt Q16718)
# HNRNPM = HNRNPM (UniProt P52272)
# NDUFA7 = NDUFA7 (UniProt O95182)
# MYBBP1A = MYBBP1A (UniProt Q9BQG0)
# RPL23A = RPL23A (UniProt P62750)
# H4C1 = H4C1 (UniProt P62805)
# LMNB1 = LMNB1 (UniProt P20700)
# LMNB2 = LMNB2 (UniProt Q03252)
# TMPO = TMPO (UniProt P42167)
# TOR1AIP1 = TOR1AIP1 (UniProt Q5JTV8)
# HSPA4 = HSPA4 (UniProt P34932)
# HSPH1 = HSPH1 (UniProt Q92598)
# LDHB = LDHB (UniProt P07195)
# MYH10 = MYH10 (UniProt P35580)
# MATR3 = MATR3 (UniProt P43243)
# H1-2 = H1-2 (UniProt P16403)
# NSMCE3 = NSMCE3 (UniProt Q96MG7)
# HADHA = HADHA (UniProt P40939)
# SQOR = SQOR (UniProt Q9Y6N5)
# TIMM50 = TIMM50 (UniProt Q3ZCQ8)
# HADHB = HADHB (UniProt P55084)
# PRKDC = PRKDC (UniProt P78527)
# XRCC5 = XRCC5 (UniProt P13010)
# PDIA6 = PDIA6 (UniProt Q15084)
# PSMC2 = PSMC2 (UniProt P35998)
# Chain of MYH9 (P35579 whole entry): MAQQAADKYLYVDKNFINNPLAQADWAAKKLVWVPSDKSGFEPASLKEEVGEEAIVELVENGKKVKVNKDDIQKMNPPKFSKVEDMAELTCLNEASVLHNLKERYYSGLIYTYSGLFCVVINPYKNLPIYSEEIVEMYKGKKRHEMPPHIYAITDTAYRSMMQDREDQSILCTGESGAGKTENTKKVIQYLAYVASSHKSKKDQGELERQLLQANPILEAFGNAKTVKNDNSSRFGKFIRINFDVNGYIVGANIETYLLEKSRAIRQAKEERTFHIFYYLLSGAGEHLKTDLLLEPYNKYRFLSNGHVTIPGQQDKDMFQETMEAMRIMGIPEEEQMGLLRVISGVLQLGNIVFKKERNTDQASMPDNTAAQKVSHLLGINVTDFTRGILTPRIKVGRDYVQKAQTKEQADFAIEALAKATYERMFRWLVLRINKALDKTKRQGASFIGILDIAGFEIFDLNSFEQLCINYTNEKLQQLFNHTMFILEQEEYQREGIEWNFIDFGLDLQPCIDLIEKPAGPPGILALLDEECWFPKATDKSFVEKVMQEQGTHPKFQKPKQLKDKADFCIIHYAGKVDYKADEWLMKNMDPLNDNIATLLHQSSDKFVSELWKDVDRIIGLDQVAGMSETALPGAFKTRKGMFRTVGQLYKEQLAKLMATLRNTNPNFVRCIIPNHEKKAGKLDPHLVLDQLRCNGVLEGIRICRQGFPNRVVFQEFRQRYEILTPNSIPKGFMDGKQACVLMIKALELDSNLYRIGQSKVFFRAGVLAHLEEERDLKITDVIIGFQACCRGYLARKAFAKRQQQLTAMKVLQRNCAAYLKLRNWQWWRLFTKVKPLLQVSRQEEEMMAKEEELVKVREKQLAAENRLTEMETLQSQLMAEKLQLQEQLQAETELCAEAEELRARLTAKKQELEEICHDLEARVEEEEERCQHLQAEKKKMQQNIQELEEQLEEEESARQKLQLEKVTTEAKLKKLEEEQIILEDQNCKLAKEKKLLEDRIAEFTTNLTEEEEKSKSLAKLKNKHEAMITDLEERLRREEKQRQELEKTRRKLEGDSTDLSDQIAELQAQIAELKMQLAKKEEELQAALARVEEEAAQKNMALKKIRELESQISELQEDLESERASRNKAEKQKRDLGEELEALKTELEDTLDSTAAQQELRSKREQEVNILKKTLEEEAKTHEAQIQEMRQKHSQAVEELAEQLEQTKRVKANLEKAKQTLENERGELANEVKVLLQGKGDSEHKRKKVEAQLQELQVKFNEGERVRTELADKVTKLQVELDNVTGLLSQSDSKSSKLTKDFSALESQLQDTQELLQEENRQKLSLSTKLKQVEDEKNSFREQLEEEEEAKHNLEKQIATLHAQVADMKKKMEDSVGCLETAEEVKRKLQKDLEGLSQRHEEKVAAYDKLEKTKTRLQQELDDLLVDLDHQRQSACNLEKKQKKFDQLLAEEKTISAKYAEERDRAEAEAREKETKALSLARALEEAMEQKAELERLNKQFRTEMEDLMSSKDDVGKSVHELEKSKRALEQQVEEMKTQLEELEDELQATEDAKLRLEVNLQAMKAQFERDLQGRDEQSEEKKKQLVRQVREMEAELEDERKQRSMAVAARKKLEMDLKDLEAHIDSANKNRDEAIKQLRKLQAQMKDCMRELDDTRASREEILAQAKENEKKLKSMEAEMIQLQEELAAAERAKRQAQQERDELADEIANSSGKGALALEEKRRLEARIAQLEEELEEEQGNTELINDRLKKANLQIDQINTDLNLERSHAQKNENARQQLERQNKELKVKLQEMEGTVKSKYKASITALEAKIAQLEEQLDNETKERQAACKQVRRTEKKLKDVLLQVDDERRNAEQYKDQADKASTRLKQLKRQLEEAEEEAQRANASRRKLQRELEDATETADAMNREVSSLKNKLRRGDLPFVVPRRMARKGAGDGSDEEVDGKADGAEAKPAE
# Chain of SLC25A5 (P05141 whole entry): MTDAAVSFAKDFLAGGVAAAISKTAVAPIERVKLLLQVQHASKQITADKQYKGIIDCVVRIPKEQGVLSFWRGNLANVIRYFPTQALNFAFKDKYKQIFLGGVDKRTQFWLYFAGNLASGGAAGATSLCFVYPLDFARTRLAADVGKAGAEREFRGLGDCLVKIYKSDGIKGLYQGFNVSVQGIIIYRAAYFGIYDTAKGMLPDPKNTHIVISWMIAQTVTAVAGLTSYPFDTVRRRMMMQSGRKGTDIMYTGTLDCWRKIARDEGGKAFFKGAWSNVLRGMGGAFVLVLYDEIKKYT
# Chain of UniProt Q5JTV8 (Q5JTV8 whole entry): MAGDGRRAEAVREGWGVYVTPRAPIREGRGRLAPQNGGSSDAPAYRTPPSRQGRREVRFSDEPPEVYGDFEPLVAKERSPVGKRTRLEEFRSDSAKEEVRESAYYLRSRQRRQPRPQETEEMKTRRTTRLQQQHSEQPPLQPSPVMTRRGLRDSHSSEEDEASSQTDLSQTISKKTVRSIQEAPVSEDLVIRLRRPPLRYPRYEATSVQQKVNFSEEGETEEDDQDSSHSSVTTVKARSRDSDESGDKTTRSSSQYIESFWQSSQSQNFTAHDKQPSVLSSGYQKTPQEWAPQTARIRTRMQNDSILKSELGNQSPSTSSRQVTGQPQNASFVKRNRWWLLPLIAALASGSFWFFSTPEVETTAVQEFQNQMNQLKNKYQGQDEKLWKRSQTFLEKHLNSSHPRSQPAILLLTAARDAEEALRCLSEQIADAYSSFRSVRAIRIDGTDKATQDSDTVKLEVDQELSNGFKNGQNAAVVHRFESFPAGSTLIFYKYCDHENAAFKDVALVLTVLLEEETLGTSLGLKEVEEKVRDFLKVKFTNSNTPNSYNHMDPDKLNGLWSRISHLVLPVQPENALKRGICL
# Chain of UniProt P13010 (P13010 whole entry): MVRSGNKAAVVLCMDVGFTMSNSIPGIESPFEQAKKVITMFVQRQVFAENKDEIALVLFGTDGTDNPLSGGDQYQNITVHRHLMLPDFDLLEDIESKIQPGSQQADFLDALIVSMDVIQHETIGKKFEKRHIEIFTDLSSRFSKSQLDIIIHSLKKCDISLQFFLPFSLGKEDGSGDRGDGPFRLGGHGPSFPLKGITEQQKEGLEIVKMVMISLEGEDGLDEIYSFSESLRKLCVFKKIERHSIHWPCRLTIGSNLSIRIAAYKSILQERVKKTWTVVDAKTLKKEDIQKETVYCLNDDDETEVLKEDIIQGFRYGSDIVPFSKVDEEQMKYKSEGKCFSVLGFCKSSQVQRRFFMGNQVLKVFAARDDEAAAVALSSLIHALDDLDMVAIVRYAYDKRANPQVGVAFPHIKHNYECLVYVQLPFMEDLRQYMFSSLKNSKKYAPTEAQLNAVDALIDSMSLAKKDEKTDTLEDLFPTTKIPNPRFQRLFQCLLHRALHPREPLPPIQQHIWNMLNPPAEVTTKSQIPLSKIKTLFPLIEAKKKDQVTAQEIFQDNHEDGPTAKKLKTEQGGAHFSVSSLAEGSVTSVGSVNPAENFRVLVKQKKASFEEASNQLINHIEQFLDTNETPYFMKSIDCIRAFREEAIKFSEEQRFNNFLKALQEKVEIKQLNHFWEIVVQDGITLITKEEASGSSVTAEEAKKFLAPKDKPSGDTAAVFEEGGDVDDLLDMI
# Chain of NDUFA7, O95182 (O95182 whole entry): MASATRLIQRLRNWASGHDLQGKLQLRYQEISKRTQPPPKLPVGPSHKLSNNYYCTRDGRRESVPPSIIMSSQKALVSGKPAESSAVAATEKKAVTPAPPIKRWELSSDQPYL
# Chain of NDUFA7 (O95182 whole entry): as above
# Chain of XRCC6 (P12956 whole entry): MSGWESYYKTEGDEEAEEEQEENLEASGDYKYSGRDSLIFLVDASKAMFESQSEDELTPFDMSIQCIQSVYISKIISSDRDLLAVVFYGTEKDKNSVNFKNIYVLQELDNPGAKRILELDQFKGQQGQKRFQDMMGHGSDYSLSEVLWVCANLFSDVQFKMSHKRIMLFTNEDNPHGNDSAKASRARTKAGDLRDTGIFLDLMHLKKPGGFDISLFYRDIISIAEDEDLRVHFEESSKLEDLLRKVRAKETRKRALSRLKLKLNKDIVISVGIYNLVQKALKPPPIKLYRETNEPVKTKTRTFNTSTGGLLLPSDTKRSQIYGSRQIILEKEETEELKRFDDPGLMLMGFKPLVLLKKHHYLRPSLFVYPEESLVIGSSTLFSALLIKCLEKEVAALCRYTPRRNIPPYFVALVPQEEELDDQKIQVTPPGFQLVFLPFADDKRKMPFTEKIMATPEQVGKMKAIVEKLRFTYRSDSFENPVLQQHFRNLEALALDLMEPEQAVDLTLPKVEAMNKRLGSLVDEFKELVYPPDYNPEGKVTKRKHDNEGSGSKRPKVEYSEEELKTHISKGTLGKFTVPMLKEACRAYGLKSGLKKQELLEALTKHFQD
# Chain of PTBP1 (P26599 whole entry): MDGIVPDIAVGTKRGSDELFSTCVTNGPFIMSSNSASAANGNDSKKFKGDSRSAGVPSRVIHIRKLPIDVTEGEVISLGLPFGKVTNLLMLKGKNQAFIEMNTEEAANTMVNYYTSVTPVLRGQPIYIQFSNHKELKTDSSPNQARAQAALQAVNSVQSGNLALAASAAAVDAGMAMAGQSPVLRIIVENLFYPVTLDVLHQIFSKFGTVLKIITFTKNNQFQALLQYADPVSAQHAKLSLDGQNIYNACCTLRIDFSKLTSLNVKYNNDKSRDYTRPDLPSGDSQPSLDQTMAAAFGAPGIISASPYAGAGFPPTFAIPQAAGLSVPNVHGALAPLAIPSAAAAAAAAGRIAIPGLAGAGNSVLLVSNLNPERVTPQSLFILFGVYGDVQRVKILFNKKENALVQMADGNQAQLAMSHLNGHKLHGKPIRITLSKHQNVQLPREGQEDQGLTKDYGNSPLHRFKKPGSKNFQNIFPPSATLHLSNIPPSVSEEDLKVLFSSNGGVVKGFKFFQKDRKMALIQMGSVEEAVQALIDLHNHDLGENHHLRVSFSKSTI
# Chain of UniProt Q16718 (Q16718 whole entry): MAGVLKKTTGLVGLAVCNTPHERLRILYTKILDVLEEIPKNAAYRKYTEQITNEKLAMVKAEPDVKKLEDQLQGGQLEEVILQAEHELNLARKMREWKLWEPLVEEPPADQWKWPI
substance,measurement,setting,value
"NDUFA7, O95182",cross-linked residues,NDUFA5,K80 - K40 and K80 - K46 and K93 - K46
"S100A6, P06703",cross-linked residues,HNRNPM,K26 - K381 and K26 - K388 and K47 - K381 and K47 - K388
"NDUFS3, O75489",cross-linked residues,NDUFA7,K56 - K80 and K56 - K93 and K259 - K80
"SURF6, O75683",cross-linked residues,MYBBP1A,K16 - K263 and K34 - K344
same,cross-linked residues,RPL23A,K34 - K115 and K135 - K88
"LMNA, P02545",cross-linked residues,H4C1,K420 - K78 and K450 - K9 and K470 - K9
same,cross-linked residues,LMNB1,K32 - K261 and K78 - K209 and K90 - K312 and K97 - K123 and K97 - K157 and K97 - K182 and K108 - K182 and K135 - K312 and K181 - K102 and K233 - K49 and K260 - K271 and K270 - K261 and K270 - K330 and K270 - K457 and K316 - K312 and T416 - K49 and K420 - K49 and K420 - K271 and K420 - K312 and K457 - K49
same,cross-linked residues,LMNB2,K90 - K223 and K97 - K200 and K123 - K186 and K171 - K195 and K181 - K123 and K260 - K285 and K270 - K290 and K316 - K326 and K341 - K298 and K420 - K81
same,cross-linked residues,TMPO,K90 - K303 and K90 - K334 and K97 - K213 and K97 - S306 and K97 - K334 and K97 - S388 and K123 - S306 and K123 - K334 and K135 - K213 and K270 - K334 and K316 - K334 and K420 - K334 and K470 - K334
same,cross-linked residues,TOR1AIP1,K90 - K248 and K97 - K248 and K123 - K248
"HSPA8, P11142",cross-linked residues,HSPA4,K56 - K272 and K328 - K631 and K328 - K686 and K328 - K697
same,cross-linked residues,HSPH1,K328 - K703 and K328 - K786
"HMGA1, P17096",cross-linked residues,H4C1,K15 - K9 and K74 - K32 and K74 - K78
"LMNB1, P20700",cross-linked residues,LMNB2,K102 - K200 and K123 - K186 and K156 - K150 and K182 - K123
same,cross-linked residues,TMPO,K102 - K334 and K109 - K334 and K123 - K213 and K123 - K334 and K124 - K334 and K134 - K213 and K134 - K334 and K312 - T335
"LDHA, P00338",cross-linked residues,LDHB,K14 - K156 and K59 - K244 and K81 - K244 and K222 - K7
"MYH9, P35579",cross-linked residues,MYH10,K1775 - S1810 and K1775 - K1813 and K1802 - K1782
"PTBP1, P26599",cross-linked residues,MATR3,K436 - K491 and K454 - K3 and K454 - K483 and K454 - K491
"H1-3, P16402",cross-linked residues,H1-2,K149 - K160 and K161 - K160
same,cross-linked residues,H4C1,K33 - K32 and K33 - K78 and K188 - K78
"NSMCE1, Q8WV22",cross-linked residues,NSMCE3,K144 - K212 and K152 - K212
"SLC25A5, P05141",cross-linked residues,HADHA,K147 - K569 and K147 - K625
same,cross-linked residues,SQOR,K147 - K173 and K147 - K365
same,cross-linked residues,TIMM50,K43 - T46 and K49 - T46 and K147 - T46 and K166 - T46
"RPL23A, P62750",cross-linked residues,MYBBP1A,K50 - K344 and K78 - S1166
"ATP5PD, O75947",cross-linked residues,HADHB,K95 - K408 and K117 - K254
"TMPO, P42167",cross-linked residues,LMNB2,K334 - K123 and K334 - K133 and K334 - K137 and K334 - K150
"XRCC6, P12956",cross-linked residues,PRKDC,K189 - K2350 and K189 - K2418 and K297 - K117 and K297 - K165 and T316 - K205 and K331 - K165
same,cross-linked residues,XRCC5,K114 - S324 and K189 - K648 and K189 - K702 and K282 - S324 and K282 - K332 and K287 - K291 and K287 - K325 and T316 - K282 and K539 - K338 and K570 - K469 and T572 - K195 and K575 - K202 and K596 - K144
"P4HB, P07237",cross-linked residues,PDIA6,K31 - K150 and K71 - K150
"PSMC3, P17980",cross-linked residues,PSMC2,K173 - K116 and K372 - K340
